This note sets out measurements from the BET-seq Pho4 binding data (Le et al. 2018).

The list shows a part of the results. These are noisy estimates, calculated here from bound and input reads.

In the experiment the target is T1, Pho4 (S. cerevisiae) (UniProt P07270).
T1 sequence: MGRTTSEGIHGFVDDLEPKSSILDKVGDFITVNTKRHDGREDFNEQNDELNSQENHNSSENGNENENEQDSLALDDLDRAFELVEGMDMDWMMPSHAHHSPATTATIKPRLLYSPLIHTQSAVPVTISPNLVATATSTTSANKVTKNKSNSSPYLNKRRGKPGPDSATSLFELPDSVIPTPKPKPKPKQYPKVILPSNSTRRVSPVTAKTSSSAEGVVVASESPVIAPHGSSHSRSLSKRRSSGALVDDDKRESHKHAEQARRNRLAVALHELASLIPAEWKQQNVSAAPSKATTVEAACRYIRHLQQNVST
The experiment can be described thus: relative binding free energy (BET-seq); higher = weaker binding. The note with it: reference: library average.
For GTGGTCACGTGCCTTG, the “relative binding free energy” value was found to be 0.09 kcal/mol.
Then CCGGTCACGTGTGGTG, with 0.1 kcal/mol; and CTTGTCACGTGTAGTG, with 0.18 kcal/mol.
To GTGTTCACGTGAGATA belongs 0.37 kcal/mol.
To TGAGTCACGTGTGAGT belongs 0.27 kcal/mol; to GTCAGCACGTGGAAGT, 0.12 kcal/mol; to GTGTGCACGTGCTGAG, -0.09 kcal/mol.
For TCGTACACGTGTGGGC, the “relative binding free energy” value was found to be 0.09 kcal/mol.
Then TAGTGCACGTGCGGTT, with 0.04 kcal/mol; and CCTGTCACGTGTATGT, with -0.01 kcal/mol; and CACGGCACGTGGGTTG, with -0.25 kcal/mol.
To TGAGACACGTGAGGGG belongs 0.28 kcal/mol.
In the case of CGTGGCACGTGTTTTA, the “relative binding free energy” value is -0.14 kcal/mol.
To GCGTACACGTGTGGAT belongs 0.23 kcal/mol; to TAAGACACGTGGCGGG, -0.06 kcal/mol.
As for TTAGGCACGTGGATTA, the “relative binding free energy” value is -0.13 kcal/mol.
To TGCGACACGTGGGCGG belongs -0.28 kcal/mol; to AGCGTCACGTGTCGTT, 0.1 kcal/mol.
To TAAATCACGTGCGTGG belongs 0.07 kcal/mol; to ATGAACACGTGTGCGG, -0.01 kcal/mol.
To GTTAGCACGTGTGTCT belongs 0.03 kcal/mol; to AAGAACACGTGGTGGG, -0.08 kcal/mol; to TGTGCCACGTGGTGCG, -0.21 kcal/mol.
For the sequence TCTAACACGTGGTTGG, the “relative binding free energy” value is 0.01 kcal/mol.
Then TAAATCACGTGTTGGA, with 0.16 kcal/mol; and CGTAGCACGTGTTGGG, with -0.02 kcal/mol.
In the case of AGTTTCACGTGGCTGC, the “relative binding free energy” value is 0.16 kcal/mol.
On to TAAATCACGTGAATTG, for which the “relative binding free energy” value amounted to 0.25 kcal/mol.
Then GTAGTCACGTGAGTGC, with 0.39 kcal/mol.
In the case of TTTGTCACGTGTCGTT, the “relative binding free energy” value came to 0.08 kcal/mol.
In the case of AGCATCACGTGTGGGT, the “relative binding free energy” value turned out to be 0.14 kcal/mol.
To TGTGTCACGTGATGGG belongs 0.24 kcal/mol.
To CCGGGCACGTGATTGG belongs -0.03 kcal/mol.
To CTGAGCACGTGGTTTT belongs -0.13 kcal/mol; to AAAGGCACGTGATGAG, 0.08 kcal/mol.
Turning to TGTTCCACGTGGGTCG, the “relative binding free energy” value was -0.15 kcal/mol.
In the case of TGTAGCACGTGTGCTG, the “relative binding free energy” value worked out at 0.04 kcal/mol.
To AAGGTCACGTGCTATG belongs 0.06 kcal/mol.
To ATGGTCACGTGAAGTG belongs 0.18 kcal/mol; to ACGTGCACGTGGGGGA, -0.22 kcal/mol; to AAGCGCACGTGAGGGT, 0.1 kcal/mol.
For TGAGCCACGTGGGTAA, the “relative binding free energy” value is -0.07 kcal/mol.
Regarding GGCCTCACGTGTGAGT, the “relative binding free energy” value was 0.27 kcal/mol.
To CCGTGCACGTGTTTGT belongs 0.02 kcal/mol.
For the sequence TTTAGCACGTGTTATC, the “relative binding free energy” value is -0.1 kcal/mol.
For the sequence TAGGACACGTGATTGT, the “relative binding free energy” value amounted to 0.13 kcal/mol.
For the sequence GTGCACACGTGGGTAT, the “relative binding free energy” value was -0.11 kcal/mol.
As for TAGTGCACGTGAGCAT, the “relative binding free energy” value was 0.1 kcal/mol.
With ATTTTCACGTGTATAT, the “relative binding free energy” value turned out to be 0.21 kcal/mol.
To TTGCGCACGTGTTGTT belongs 0 kcal/mol; to AGTCGCACGTGGGATA, -0.12 kcal/mol; to GGTCACACGTGGGGAG, 0.09 kcal/mol.
Then GCCTGCACGTGGTGTG, with -0.12 kcal/mol.
To ATTATCACGTGCGTAG belongs 0.23 kcal/mol.
On to CTGGTCACGTGTCTGG, for which the “relative binding free energy” value was determined as 0.11 kcal/mol.
Then AGCATCACGTGTAGTG, with 0.06 kcal/mol.
Then GGTTTCACGTGGGGGC, with 0.31 kcal/mol; and ATTCGCACGTGTTTTG, with -0.01 kcal/mol; and GTGTTCACGTGCCAGG, with 0.27 kcal/mol.
With CGTGTCACGTGGTTTC, the “relative binding free energy” value is 0.11 kcal/mol.
Consider AAATGCACGTGTGGAG, for which the “relative binding free energy” value is -0.01 kcal/mol.
GGAGTCACGTGTTGAA: the “relative binding free energy” value worked out at 0.33 kcal/mol.
To GCGTGCACGTGTTGGG belongs 0.04 kcal/mol.
Turning to ATTAACACGTGTATGG, the “relative binding free energy” value is -0.05 kcal/mol.
Then GCGGTCACGTGTAGTT, with 0.21 kcal/mol; and CCTGACACGTGTGTTG, with 0.11 kcal/mol; and GATGACACGTGTGGGT, with 0.1 kcal/mol.
With AGATTCACGTGGGATT, the “relative binding free energy” value is 0.25 kcal/mol.
Then GTGCGCACGTGTGTTC, with 0.09 kcal/mol; and TGGCTCACGTGCAGTG, with 0.19 kcal/mol; and AGGTTCACGTGGCGCA, with 0.16 kcal/mol.
Take TAAGTCACGTGGATTA: the “relative binding free energy” value turned out to be 0.01 kcal/mol.
Then GGTGCCACGTGATTGG, with 0.19 kcal/mol; and TGAGGCACGTGGATTT, with 0.02 kcal/mol.
For the sequence TAGATCACGTGTAGTG, the “relative binding free energy” value was 0.18 kcal/mol.
Then TGCGGCACGTGGCGAG, with -0.06 kcal/mol.
For the sequence GGCGGCACGTGTTCTT, the “relative binding free energy” value amounted to 0.05 kcal/mol.
To CGTGGCACGTGTGGAG belongs -0.12 kcal/mol; to TGAGTCACGTGGTATG, 0.05 kcal/mol; to TAGATCACGTGATATT, 0.21 kcal/mol.
For ATGGCCACGTGTGTCG, the “relative binding free energy” value is -0.07 kcal/mol.
Then TTTGTCACGTGGTTAT, with 0.11 kcal/mol; and CTTGGCACGTGTGGGG, with -0.01 kcal/mol; and CGGATCACGTGGGGTA, with -0.07 kcal/mol.
Turning to AGGTACACGTGTGACG, the “relative binding free energy” value was 0.18 kcal/mol.
To GGGTGCACGTGGCCAG belongs -0.12 kcal/mol.
As for GTTAGCACGTGACGTA, the “relative binding free energy” value was 0.16 kcal/mol.
Then GTGGACACGTGGGATG, with -0.14 kcal/mol; and TGCGGCACGTGATGTA, with 0.06 kcal/mol.
On to CGATGCACGTGGGAAG, for which the “relative binding free energy” value was -0.06 kcal/mol.
For GTGTTCACGTGTAGAT, the “relative binding free energy” value was 0.22 kcal/mol.
Consider TGGTACACGTGAAAAT, for which the “relative binding free energy” value worked out at 0.29 kcal/mol.
As for TCGTACACGTGGGAGT, the “relative binding free energy” value is -0.1 kcal/mol.
Then GTTGTCACGTGAGAAA, with 0.25 kcal/mol.
Then GGGGACACGTGTTGCT, with -0.07 kcal/mol; and GGGATCACGTGGTGAA, with 0.2 kcal/mol.
For the sequence TGAGTCACGTGGGAGC, the “relative binding free energy” value amounted to 0.11 kcal/mol.
As for ACGGTCACGTGTTGTG, the “relative binding free energy” value turned out to be 0.13 kcal/mol.
Then GGGTGCACGTGGAACT, with 0.19 kcal/mol.
Then AAGTGCACGTGGGCCT, with -0.17 kcal/mol; and GGGGCCACGTGGTCGG, with -0.16 kcal/mol; and TTCTGCACGTGAAATG, with 0.26 kcal/mol.
Consider GTTGGCACGTGTGTAC, for which the “relative binding free energy” value was -0.16 kcal/mol.
Then ATAAACACGTGTTATT, with -0.03 kcal/mol.
Consider GGTGGCACGTGATTCT, for which the “relative binding free energy” value was determined as 0.04 kcal/mol.
Take CGCGGCACGTGGGAAT: the “relative binding free energy” value is -0.03 kcal/mol.
CGTCTCACGTGTGTGA: the “relative binding free energy” value came to 0.21 kcal/mol.
Then AGGGGCACGTGGTCAG, with -0.15 kcal/mol; and GGATACACGTGTTAGT, with 0.21 kcal/mol; and CGGTGCACGTGTGTCG, with -0.15 kcal/mol.
To AGTCTCACGTGGAAGG belongs 0.3 kcal/mol; to TTCGTCACGTGAAGTA, 0.23 kcal/mol; to CTGTGCACGTGGCATG, -0.23 kcal/mol.
To TTGGACACGTGGAGAG belongs -0.14 kcal/mol; to TGTTTCACGTGATGTG, 0.29 kcal/mol.
